Data as given in patent US20260242504A1 (CHIOME BIOSCIENCE, published 2026).

Columns and labels:
[1] = target: T1, 5T4 on 5T4-expressing CHO-K1 cells (UniProt Q13641 32-420); assay: cell-based or functional assay
T1 sequence (looked up): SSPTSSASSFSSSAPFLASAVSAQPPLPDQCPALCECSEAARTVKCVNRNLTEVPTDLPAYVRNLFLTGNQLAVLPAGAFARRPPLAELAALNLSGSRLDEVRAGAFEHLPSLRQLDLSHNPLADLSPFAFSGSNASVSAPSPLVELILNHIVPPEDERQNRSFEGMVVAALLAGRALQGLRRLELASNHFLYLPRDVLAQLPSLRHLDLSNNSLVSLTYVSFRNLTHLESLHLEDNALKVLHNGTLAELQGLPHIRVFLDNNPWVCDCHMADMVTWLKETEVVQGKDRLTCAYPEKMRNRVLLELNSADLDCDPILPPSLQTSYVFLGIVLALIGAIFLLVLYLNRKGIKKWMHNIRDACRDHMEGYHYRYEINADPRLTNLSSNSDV

[2] = target: T2, recombinant human 5T4 protein (5T4/His) (human, UniProt Q13641 32-355); assay: ELISA, immobilized recombinant human 5T4, 0-500 nM (N=2)
T2 construct: also called Human 5T4/His; recombinant 5T4; not shown: His tag of the bought protein
T2 sequence: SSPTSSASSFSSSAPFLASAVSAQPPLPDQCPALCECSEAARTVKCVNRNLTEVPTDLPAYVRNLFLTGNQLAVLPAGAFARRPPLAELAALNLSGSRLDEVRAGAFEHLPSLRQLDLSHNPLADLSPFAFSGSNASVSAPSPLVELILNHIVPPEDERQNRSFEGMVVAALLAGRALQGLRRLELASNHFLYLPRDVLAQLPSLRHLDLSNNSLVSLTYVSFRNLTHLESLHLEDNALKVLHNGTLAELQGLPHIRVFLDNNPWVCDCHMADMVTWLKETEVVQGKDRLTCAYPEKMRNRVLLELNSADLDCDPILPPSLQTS
Protocol: The binding affinity of purified 53L10-M13 to 5T4 antigen was examined by ELISA (FIG. 14). A recombinant human 5T4 protein (ACRO Biosystems) was immobilized in a 96-well plate using the same method as that performed in FIG. 2 (Example 1). […] The curve showing the binding affinity of 53L10-M13 to 5T4 overlapped with the curve showing the binding affinity of 53L10 (●) to 5T4. The EC₅₀ values were 0.58 nM for 53L10-M13 and 0.53 nM for 53L10 (FIG. 14B).

[3] = target: T3, recombinant human PD-L1/Fc (human, UniProt Q9NZQ7 partial chain, biotinylated in the competitive ELISA (sites not given)); assay: ELISA, immobilized recombinant human PD-L1/Fc, 0-500 nM (N=2)
T3 construct: Bought from R&D Systems; also called recombinant PD-L1 protein; biotinylated PD-L1 ligand; not shown: Fc part of the bought fusion
Protocol: The binding affinity of purified 53L10-M13 to recombinant PD-L1 protein was examined by ELISA (FIG. 16). A recombinant human PD-L1/Fc protein (R&D Biosystems) was immobilized in a 96-well plate using the same method as that performed in Example 4. According to the procedure described in “Materials and Methods” later, the binding assay of 53L10-M13 and 53L10 to human PD-L1 protein was performed at increasing concentrations (0-500 nM). […] The curve showing the binding affinity of 53L10-M13 to PD-L1 overlapped with the curve showing the binding affinity of 53L10 (●) to PD-L1.

Sequence of recombinant human PD-L1/Fc (Q9NZQ7 19-239 limits assumed): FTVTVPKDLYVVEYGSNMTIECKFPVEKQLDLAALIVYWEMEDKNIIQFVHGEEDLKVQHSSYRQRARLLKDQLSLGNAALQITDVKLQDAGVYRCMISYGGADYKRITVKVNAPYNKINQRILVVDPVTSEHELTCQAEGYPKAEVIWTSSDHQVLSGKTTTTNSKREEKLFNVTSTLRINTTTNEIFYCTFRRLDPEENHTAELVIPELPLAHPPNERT

B1: 53L10 tribody (other)
chain 1: QVQLVQSGAEVKKPGASVKVSCKASGYSFTSYYMHWVKQSPGQGLEWIGRINPNNGVTLYNQKFKDRVTMTRDTSISTAYMELSRLRSDDTAVYYCARSTMITNYVMDYWGQGTLVTVSSASTKGPSVFPLAPSSKSTSGGTAALGCLVKDYFPEPVTVSWNSGALTSGVHTFPAVLQSSGLYSLSSVVTVPSSSLGTQTYICNVNHKPSNTKVDKKVEPKSCDKTHTGPGGGSPGQVQLVQSGAELKKPGASVKVSCKASGYTFTRYTMHWVRQAPGQCLEWMGYINPSRGYTNYNQKFKDKATLTADKSTSTAYMELRSLRSDDTAVYYCARYYDDHYSLDYWGQGTLVTVSSASGGGGSGGGGSGGGGSAGDIQLTQSPSILSASVGDRVTITCRASSSVSYMNWYQQKPGKAPKRWIYDTSKVASGVPYRFSGSGSGTEYTLTISSMQPEDFATYYCQQWSSNPLTFGCGTKVEIKSG
chain 2: DIVMTQSPDSLAVSLGERATINCKASQSVSNDVAWYQQKPGQPPKLLIYYTSSRYAGVPDRFSGSGSGTDFTLTISSLQAEDVAVYYCQQDYNSPPTFGGGTKLEIKRTVAAPSVFIFPPSDEQLKSGTASVVCLLNNFYPREAKVQWKVDNALQSGNSQESVTEQDSKDSTYSLSSTLTLSKADYEKHKVYACEVTHQGLSSPVTKSFNRGECGPGGGSPG[about 100 residues not given here]SKWELVDPYGNWGQGTMVTVSSGGGGSGGGGSGGGGSNFMLTQPHSVSESPGKTITISCTRSSGSIAGNYVQWYQQRPGSAPIIVIYEDNQRPSGVPDRFSGSIDSSSNSASLTISRLKTEDEADYYCQSYEASNVVFGGGTKLTVLSG
notes: Trispecific tribody, a heterodimer; L chain derivative: VL(5T4)-CL-scFv(10.12); also called 5T4xCD3xPD-L1
Q: For B1, which “EC50 of luciferase activity, T cell activation bioassay (NFAT) with CHO-5T4 target cells” value [1] is on record?
A: 0.01 nM

Q: What about the EC50 [2] of the same binder?
A: 0.53 nM

Q: What about the EC50 [3] of the same binder?
A: 34.4 nM
